Assay results as given in PubChem BioAssay AID504832 (National Center for Advancing Translational Sciences (NCATS), 2011).
Hit rate of the full screen: of about 310,000 compounds, about 18,000 (5.8%) were called active. This list was built around the results that the source calls inconclusive (neither active nor inactive); the mix of calls is not that of the screen. The call rests on the fitted dose curve; in most records, active means well fitted inhibition curve with a large enough effect; inconclusive means small, poorly fitted or top-dose-only effect, or another doubt; inactive means no such curve, though single readings can be large or run the other way. Potencies of inconclusive entries are left out as doubtful fits.

Test: Primary qHTS for delayed death inhibitors of the malarial parasite plastid, 48 hour incubation
Details: P. falciparum luciferase growth in erythrocytes; series mostly up to 28.7 µM
Outline: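 Firefly luciferase activity from engineered P. falciparum reports growth; inhibitors lower the luminescent signal. Cultures contained 2% hematocrit erythrocytes at 0.1% final parasitemia.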
Potency means the concentration at half of the fitted maximal effect; tags describe the fitted curve by direction and shape.

Row | SMILES | Potency
1 | Cc1cccc(N/C(=N\S(=O)(=O)c2ccccc2)C(F)(F)F)c1 | inactive
2 | CCOC(=O)CC(=O)CSc1nc(N)c(C#N)c(-c2ccc(Cl)cc2)c1C#N | inconclusive [inhibitor, single point]
3 | CN(C)C(CNC(=O)c1ccc(S(=O)(=O)Nc2ccccc2F)cc1)c1ccco1 (centres undefined) | inconclusive [inhibitor, single point]
4 | O=C(Oc1ccccc1C(=S)N1CCOCC1)c1ccc([N+](=O)[O-])cc1[N+](=O)[O-] | inactive
5 | O=C(OCc1c(-c2ccccc2)ncc2ccccc12)c1ccc(Cl)cc1Cl | inconclusive [inhibitor, single point]
6 | CC(C)N(C(=O)C[n+]1ccsc1N)c1ccccc1 | inactive
7 | CN(C)c1ccccc1C(=O)N1CCC(n2nccc2NC(=O)C2CC2)CC1 | inconclusive [inhibitor, single point]
8 | COCCN(C(=O)COC(=O)c1cc2c(s1)CCCC2)c1c(N)n(Cc2ccccc2)c(=O)[nH]c1=O | inconclusive [inhibitor, partial curve]
9 | Cc1cc2c3c(c1)C1(C(=O)N3C(C)(C)CC2C)C(C#N)=C(N)OC2=C1C(=O)CC(C)(C)C2 (centres undefined) | active: 11.7 µM
10 | Cc1cccc(-c2nc3ccccc3c(=O)n2NC(=O)c2cccnc2Cl)c1 | inactive
11 | CCOC(=O)NC(Cc1c[nH]c2ccccc12)C(=O)NCCc1ccc(S(N)(=O)=O)cc1 (centres undefined) | inconclusive [inhibitor, partial curve]
12 | COc1ccc(C(=O)NCc2ccccc2CN2CCCC2)cc1S(=O)(=O)Nc1ccc(C)cc1 | active: 10.4 µM
13 | CCNc1nc(NC(C)C)nc(Oc2ccc(OCc3ccccc3)nn2)n1 | inconclusive [inhibitor, single point]
14 | O=c1c(NCCc2ccc(Cl)cc2)c(-c2ccccc2)c1=O | inconclusive [inhibitor, full curve]
15 | Cc1ccc(S(=O)(=O)N2CCN(c3nn(C)c(=O)n(C)c3=O)CC2)cc1C | inconclusive [inhibitor, single point]
16 | CC(C)(C)c1ccc(C(=O)Nc2ccc(Oc3cccnc3)nc2)cc1 | inconclusive [inhibitor, single point]
17 | COc1cccc(C(=O)Nc2cc(S(=O)(=O)N3CCCCC3)ccc2OC)c1 | inconclusive [inhibitor, single point]
18 | CN1CCN(c2ccccc2NC(=O)c2cc(Br)ccc2Cl)CC1 | inconclusive [inhibitor, single point]
19 | CC1CCN(C(=O)C2CCN(c3nnc(-n4cccc4)s3)CC2)CC1 | inactive
20 | N#Cc1ccccc1OCc1nnc(-c2ccccc2Br)o1 | inactive
21 | Oc1ccc(/C=N/Nc2ccc3ccccc3c2)c(O)c1 | inconclusive [inhibitor, full curve, poor fit]
22 | N#CCCN(C(=O)COc1ccc(F)cc1Br)c1ccccc1F | inconclusive [inhibitor, partial curve, poor fit]
23 | Cc1cccc(NC(=O)Cn2nnc(C(=O)NCc3ccco3)c2N)c1 | inactive
24 | CCC(C)(C)C1CCc2[nH]nc(C(=O)NCCCNC(=O)OC(C)(C)C)c2C1 (centres undefined) | active: 9.28 µM
25 | COc1ccc(Cn2nnnc2C(c2cc3cccc(C)c3[nH]c2=O)N2CCOCC2)cc1 (centres undefined) | inactive

Row | SMILES | Potency
26 | O=C(N1CCN(CCO)CC1)N1c2ccccc2C=Cc2ccccc21 | inconclusive [inhibitor, full curve, poor fit]
27 | COc1cc(F)ccc1CN1CCC(C(=O)Nc2ccc(Oc3ccccc3)nc2)CC1 | inconclusive [inhibitor, single point]
28 | COc1ccc(NC(=O)c2ccc(-c3ccc(-c4noc(C)n4)cc3C)cc2)cc1N1CCN(C)CC1 | active: 3.29 µM
29 | CN(C)C(CNC(=O)c1ccc(NS(=O)(=O)c2ccc3[nH]c(=O)[nH]c3c2)cc1)c1ccccc1 (centres undefined) | inconclusive [inhibitor, single point]
30 | O=c1c(Br)c(Br)cnn1-c1ccccc1 | inactive
31 | COc1ccc(CCNC(=O)CC2Nc3ccccc3NC2=O)cc1OC (centres undefined) | inconclusive [inhibitor, single point]
32 | Cc1ccccc1N1C(=O)C2C3CC(=O)C(c4ccccc43)C2C1=O (centres undefined) | inactive
33 | COc1ccccc1CCNC(=O)C(=O)NCC1CCCN1S(=O)(=O)c1ccccc1 (centres undefined) | inconclusive [inhibitor, full curve]
34 | O=C(COc1cccc(F)c1)N1c2ccccc2Sc2ccccc21 | inconclusive [inhibitor, single point]
35 | O=c1[nH]c(CN2CCN(c3ccccc3O)CC2)nc2ccccc12 | inconclusive [inhibitor, partial curve, poor fit]
36 | CCC(C)c1ccccc1NC(=O)COc1ccc(-c2nnco2)cc1 (centres undefined) | inconclusive [inhibitor, single point]
37 | COC(=O)C1C(=O)C2=C(CC1C)NC(=O)CC2c1ccccc1 (centres undefined) | inconclusive [inhibitor, single point]
38 | Cc1ccc(S(=O)(=O)Cn2nnnc2CN(Cc2ccco2)Cc2cccs2)cc1 | active: 10.4 µM
39 | Cc1cccc(CC(=O)Nc2cc(=O)n(C)c(=O)n2C)c1 | inconclusive [inhibitor, single point]
40 | Cc1ccc(CNC(=O)CSc2nc3ccccc3[nH]2)cc1 | inactive
41 | OCC1(CCc2ccccc2)CCN(Cc2cc(Cl)ccc2O)CC1 | inactive
42 | CCOC(=O)N1CCC(NC(=O)c2cc(S(=O)(=O)N3CCCCC3)ccc2F)CC1 | inconclusive [inhibitor, single point]
43 | CN1CCN(c2ccccc2NC(=O)c2ccc(N3CCCC3)c([N+](=O)[O-])c2)CC1 | inconclusive [inhibitor, partial curve]
44 | Cc1cc(N2CCN(C(=O)c3ccco3)CC2)nc(-c2ccccc2)n1 | inconclusive [inhibitor, partial curve, poor fit]
45 | CN(C)/C=N/c1sc2c(c1C(N)=O)CCCC2 | inconclusive [inhibitor, full curve]
46 | N#Cc1ccccc1NC(=O)CSc1nccn1CCc1ccccc1 | inactive
47 | COc1cc(/C=N/N=C2/SCC(=O)N2c2ccc(O)cc2)ccc1O | inactive
48 | CCOC(=O)C(C)N1C(=O)S/C(=C/c2cc(C)n(-c3ccccn3)c2C)C1=O (centres undefined) | inactive
49 | CCCC12CN3CC(C)(CN(C1)C3c1ccc(OC)cc1)C2=O (centres undefined) | inconclusive [inhibitor, full curve, poor fit]
50 | CCOc1cc(C(=O)NCc2ccc(F)cc2)ccc1OCC(=O)N1CCCCC1 | inconclusive [inhibitor, single point]

Row | SMILES | Potency
51 | CCN1CCN(Cc2ccc(NC(=O)c3ccc(C)c(NC(=O)c4cccc5[nH]ccc45)c3)cc2C(F)(F)F)CC1 | active: 11.7 µM
52 | COc1cccc(OCc2ccc(Cl)cc2)c1C#N | inactive
53 | Cc1nn(Cc2ccccc2)c(C)c1CNC(=O)[C@H](C)N=C1NS(=O)(=O)c2ccccc21 | inconclusive [inhibitor, single point]
54 | CCOCCc1c(O)nc(SCC)[nH]c1=O | inconclusive [inhibitor, partial curve, poor fit]
55 | CC(Oc1ccccc1C(N)=O)C(=O)Nc1ccc(S(=O)(=O)N2CCCC2)cc1 (centres undefined) | inconclusive [inhibitor, partial curve, poor fit]
56 | CCOC(CNC(=O)c1ccc(N2CCc3ccccc32)c([N+](=O)[O-])c1)OCC | inactive
57 | O=C(N/C=C/c1ccccc1)Nc1ccc(Cl)cc1 | inactive
58 | O=S(=O)(/N=C(/c1ccccc1Cl)N1CCOCC1)c1ccccc1 | inactive
59 | O=c1c(C=NCCN2CCNCC2)c(O)n(C2CCCCC2)c(=O)n1C1CCCCC1 | active: 13.1 µM
60 | Cc1oc2c(CN3CCCC3)c(O)ccc2c(=O)c1-c1ccccc1 | inconclusive [inhibitor, single point]
61 | COc1ccc2cc(CO)n(C)c2c1 | active: 11.7 µM
62 | CCOc1ccc(-c2nnc3ccc(SCC(=O)Nc4cc(C)on4)nn23)cc1 | inconclusive [inhibitor, single point]
63 | O=C(CNC(=O)c1ccc(Cl)cc1)NCCCn1ccnc1 | active: 10.4 µM
64 | Cc1ccc(NC(=O)OCc2cccs2)cc1 | inactive
65 | O=C(NCc1ccc(Cl)cc1)c1ccc2nc[nH]c2c1 | inactive
66 | CCCn1nnnc1SCC(=O)c1ccc2c(c1)OCCO2 | inactive
67 | Cc1c(C(=O)N(C)CC(=O)Nc2cccc(F)c2)oc2c(Cl)cccc12 | active: 2.62 µM
68 | O=c1[nH]c2ccccc2nc1/C=C/c1ccc(F)cc1 | inactive
69 | COc1ccc(Br)cc1/C(C)=N/NC1=NCCN1 | inactive
70 | N#Cc1ccc(OCC(=O)Nc2cc(S(=O)(=O)N3CCCCC3)ccc2N2CCCCC2)cc1 | inactive
71 | COc1ccc(NC(=O)Nc2ccc3c(c2)N(C)C(=O)CS3)cc1Cl | inconclusive [inhibitor, single point]
72 | CC(c1c(O)c2ccccc2[nH]c1=O)C1(C)CCC(O)C(C)(C)O1 (centres undefined) | inconclusive [inhibitor, single point]
73 | CCN1CCN(c2cc(C)c3cc(NC(=S)N(C)Cc4ccccc4)ccc3n2)CC1 | inconclusive [inhibitor, single point]
74 | CCn1cc(C(=O)NCCCN2CCN(C)CC2)c(=O)c2cc(S(=O)(=O)N3CCc4ccccc4C3)ccc21 | inconclusive [inhibitor, partial curve, poor fit]
